Results reported in the supplement of paper PMC7826260.
Some of the results follow. The data describe in vitro nicking of single-stranded DNA by Rep domains (3 µM enzyme, 1 h, 37 °C); shown is the middle of each 90-letter strand. Numbers give uncut DNA relative to the enzyme-free pool, as log2; strong cutting gives strongly negative numbers. There is no active / inactive call. Because reads are shares of a total, they shift together; where an enzyme cuts many sequences, the uncut ones exceed 0.

What was measured:
Assay in all cases: uncleaved DNA left, log2 of reads against the no-enzyme library (log2 ratio); higher = less cleavage (more negative = more Rep cleavage of the k-mer); sequences stand for … in CTCGTCCG…ACCGGAGA
[1] = test system: T1, Rep nickase domain of Muscovy duck circovirus
T1 sequence (protein, residues 1-111, tag omitted): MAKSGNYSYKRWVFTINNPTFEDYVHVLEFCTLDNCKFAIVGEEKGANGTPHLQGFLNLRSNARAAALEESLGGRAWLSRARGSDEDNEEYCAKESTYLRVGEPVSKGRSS
Method: (§1)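 A pool of 90-nt single-stranded DNAs with seven random bases just before the constant AC of the nick site (name = the seven bases) was cut by 3 µM recombinant His6-SUMO-tagged Rep nickase domain (300 nM DNA, 50 mM HEPES pH 8.0, 50 mM NaCl, 1 mM MnCl2, 1 h, 37 °C, three replicates). Uncut DNA was amplified and sequenced.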

[2] = test system: T2, Rep nickase domain of banana bunchy top virus
T2 sequence (protein, residues 1-94, tag omitted): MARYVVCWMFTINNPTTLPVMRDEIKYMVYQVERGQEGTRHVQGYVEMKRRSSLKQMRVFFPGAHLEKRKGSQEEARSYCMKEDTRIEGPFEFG
Method: as §1

[3] = test system: T3, Rep nickase domain of cabbage leaf curl virus
T3 sequence (protein, residues 1-116, tag omitted): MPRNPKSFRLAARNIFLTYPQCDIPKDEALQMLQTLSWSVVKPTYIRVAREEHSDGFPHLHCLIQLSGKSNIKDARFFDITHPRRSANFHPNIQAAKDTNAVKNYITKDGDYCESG
Method: as §1

[4] = test system: T4, Rep nickase domain of chickpea chlorotic dwarf virus
T4 sequence (protein, residues 1-124, tag omitted): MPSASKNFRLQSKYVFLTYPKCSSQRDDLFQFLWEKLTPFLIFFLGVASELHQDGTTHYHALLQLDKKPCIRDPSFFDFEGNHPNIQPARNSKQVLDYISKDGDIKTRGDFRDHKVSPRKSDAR
Method: as §1

[5] = test system: T5, Rep nickase domain of faba bean necrotic yellows virus
T5 sequence (protein, residues 1-98, tag omitted): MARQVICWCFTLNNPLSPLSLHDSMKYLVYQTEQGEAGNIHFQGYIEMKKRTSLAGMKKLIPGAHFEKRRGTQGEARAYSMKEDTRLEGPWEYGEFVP
Method: as §1

[6] = test system: T6, Rep nickase domain of maize striate mosaic virus
T6 sequence (protein, residues 1-117, tag omitted): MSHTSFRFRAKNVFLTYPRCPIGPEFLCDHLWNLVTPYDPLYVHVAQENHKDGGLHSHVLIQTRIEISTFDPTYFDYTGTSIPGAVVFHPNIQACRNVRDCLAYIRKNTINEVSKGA
Method: as §1

[7] = test system: T7, Rep nickase domain of porcine circovirus 2
T7 sequence (protein, residues 2-116, tag omitted): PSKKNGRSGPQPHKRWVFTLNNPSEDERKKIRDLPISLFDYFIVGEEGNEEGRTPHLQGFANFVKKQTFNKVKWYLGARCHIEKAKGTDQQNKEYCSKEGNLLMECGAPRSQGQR
Method: as §1

[8] = test system: T8, Rep nickase domain of tomato golden mosaic virus
T8 sequence (protein, residues 1-124, tag omitted): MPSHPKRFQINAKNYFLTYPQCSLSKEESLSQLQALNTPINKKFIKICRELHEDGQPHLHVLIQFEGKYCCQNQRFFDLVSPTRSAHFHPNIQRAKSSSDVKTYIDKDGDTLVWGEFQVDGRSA
Method: as §1

[9] = test system: T9, Rep nickase domain of tomato yellow leaf curl virus
T9 sequence (protein, residues 1-136, tag omitted): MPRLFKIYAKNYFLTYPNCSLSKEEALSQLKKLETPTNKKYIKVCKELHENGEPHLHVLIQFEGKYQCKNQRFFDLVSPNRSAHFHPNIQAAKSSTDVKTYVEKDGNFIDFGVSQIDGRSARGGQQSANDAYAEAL
Method: as §1

[10] = test system: T10, Rep nickase domain of wheat dwarf virus
T10 sequence (protein, residues 1-137, tag omitted): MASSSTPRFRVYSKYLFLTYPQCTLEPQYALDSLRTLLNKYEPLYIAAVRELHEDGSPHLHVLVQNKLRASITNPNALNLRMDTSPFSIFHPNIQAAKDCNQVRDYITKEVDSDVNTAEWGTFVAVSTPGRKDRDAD
Method: as §1

| Sequence | uncleaved DNA left (log2) [1] | uncleaved DNA left (log2) [2] | uncleaved DNA left (log2) [3] | uncleaved DNA left (log2) [4] | uncleaved DNA left (log2) [5] | uncleaved DNA left (log2) [6] | uncleaved DNA left (log2) [7] | uncleaved DNA left (log2) [8] | uncleaved DNA left (log2) [9] | uncleaved DNA left (log2) [10] |
| --- | --- | --- | --- | --- | --- | --- | --- | --- | --- | --- |
| ACATACG | 0.0596 | -0.0304 | -0.444 | 0.803 | 0.0183 | -0.143 | 0.19 | -0.0155 | 0.0464 | 0.0356 |
| CCAAGAC | -0.0198 | 0.0513 | 0.0558 | 0.387 | -0.00548 | -0.0315 | 0.19 | 0.059 | 0.0681 | 0.134 |
| AACTCCA | -0.202 | -0.12 | -0.181 | -2.2 | -0.124 | -0.00632 | -2.51 | -0.00233 | -0.0544 | 0.0562 |
| GCTAGCC | 0.0329 | 0.0787 | 0.0962 | 0.505 | 0.0145 | -0.102 | 0.0623 | 0.0354 | 0.0135 | -0.0958 |
| CCTTGTA | -0.14 | 0.0455 | -0.191 | -1.15 | -0.0571 | -1.15 | -0.242 | -0.00615 | 0.0203 | -0.102 |
| GAGAGTA | 0.214 | 0.0562 | 0.436 | 0.237 | 0.0269 | 1.1 | -1.1 | 0.0484 | 0.17 | 0.181 |
| GCAGTTC | -0.102 | -0.116 | -0.0528 | -0.122 | -0.0146 | -0.241 | -0.0262 | -0.0556 | -0.0115 | -0.065 |
| TCCACGA | -0.0251 | -0.0675 | 0.0495 | -0.243 | -0.102 | -0.648 | -0.00775 | -0.0579 | -0.2 | -0.0277 |
| AGGAGGA | 0.0938 | 0.19 | 0.406 | 0.961 | 0.0672 | 0.682 | 0.231 | 0.229 | 0.0966 | 0.176 |
| TCTCCCG | -0.341 | -0.145 | -0.923 | -0.558 | -0.124 | -1.13 | -0.862 | -0.228 | -0.0608 | -0.232 |
| AGCTTAG | 0.0624 | 0.13 | -0.323 | 0.063 | -0.0144 | -0.742 | 0.136 | 0.0648 | 0.0689 | 0.0574 |
| AGATAGG | 0.159 | 0.114 | 0.06 | 0.818 | 0.137 | 0.233 | 0.201 | 0.133 | 0.0234 | 0.181 |
| ACCCATA | 0.149 | 0.00188 | -0.121 | -1.18 | 0.188 | -0.553 | -0.0283 | 0.137 | 0.0389 | 0.103 |
| GGGGATG | 0.0168 | 0.0946 | 0.634 | 1.58 | -0.0403 | 2.1 | 0.206 | -0.053 | -0.015 | 0.0055 |
| ATAACCG | 0.0113 | 0.0222 | -0.754 | -0.926 | 0.112 | -0.882 | 0.111 | 0.0758 | -0.0226 | -0.00945 |
| CACGAGA | -0.0422 | -0.0606 | 0.676 | 1.43 | 0.0227 | 0.944 | 0.0269 | -0.0152 | -0.147 | -0.0218 |
| TTTGCAT | 0.0785 | -0.0124 | -0.526 | -0.728 | 0.0123 | -0.98 | 0.0294 | -0.0396 | 0.0717 | -0.0997 |
| TCCGTCG | -0.13 | -0.207 | -0.811 | -0.133 | -0.194 | -0.868 | -0.0895 | -0.259 | -0.0761 | -0.234 |
| GCTACAG | 0.01 | 0.19 | -0.249 | -0.875 | 0.0601 | -0.653 | 0.207 | 0.106 | 0.203 | 0.134 |
| TAGGACA | -0.0303 | 0.0969 | 0.493 | 1.03 | -0.101 | 1.29 | 0.0682 | 0.0284 | 0.0513 | 0.176 |
| AGACCGC | 0.118 | 0.0551 | 0.604 | 0.937 | 0.145 | 1.2 | 0.159 | -0.0585 | 0.162 | 0.209 |
| CTCCACA | -0.148 | 0.0756 | -0.128 | -1.51 | -0.0703 | -0.605 | -0.105 | -0.223 | -0.0951 | 0.149 |
| GCATGGA | -0.0223 | -0.0731 | -0.0182 | 0.215 | -0.0347 | -0.339 | -0.0854 | -0.0256 | -0.0218 | 0.0178 |
| TAGCTTG | -0.0136 | -0.0808 | 0.0723 | 0.393 | -0.134 | 0.668 | -0.00867 | -0.104 | -0.133 | 0.0107 |
| GGGGCTA | 0.0199 | 0.158 | 0.92 | 2.05 | -0.0291 | 2.35 | 0.269 | 0.155 | 0.0548 | 0.247 |
| TCTCGAC | 0.095 | -0.0954 | 0.139 | -0.546 | 0.0135 | -0.216 | -0.0135 | 0.117 | -0.0017 | -0.103 |
| GTGACGC | -0.178 | 0.0761 | 0.532 | 1.53 | 0.0181 | 1.96 | 0.113 | 0.0932 | 0.0578 | 0.0121 |
| CGGATGA | 0.0952 | 0.0227 | 0.0927 | 0.807 | -0.149 | 1.39 | 0.0974 | 0.0215 | -0.13 | 0.0716 |
| TTCATAG | 0.0389 | 0.0278 | -0.688 | -0.689 | 0.0585 | -1.33 | 0.196 | -0.0199 | 0.0983 | -0.0452 |
| TCCCACC | -0.119 | -0.0833 | -0.034 | -0.641 | -0.157 | -0.362 | -0.461 | -0.0898 | -0.0553 | -0.273 |
